Measurements taken from patent US11178870B2 (priority 2017, dated 2021).

How the values were obtained:
[1] = system: Colletotrichum orbiculare
Magnaporthe grisea = format: in vivo; details: class of control value, Table 7
Phytophthora infestans = format: in vivo; details: class of control value, Table 7

Row | Compound | control value, Test H (anthracnose on cucumber) ([1]; 250 ppm sprayed (2.5 ml/pot) before inoculation, assessed 6 to 10 days after inoculation) | Test A control value (blast on rice) (Magnaporthe grisea) | Test F control value (late blight on tomato) (Phytophthora infestans) | Test H control value (anthracnose on cucumber) ([1]; 250 ppm spray, 2.5 ml/pot, investigated 6 to 10 days after inoculation)
1 | CCn1c(-c2ccc(F)cc2C)c(-n2cc(C)cn2)ccc1=O [Compound 367] | L (L shows the control value of 50% or less) | – | – | –
2 | Cc1cnn(-c2ccc(=O)n(CC(F)F)c2-c2ccccc2Br)c1 [Compound 405] | – | L (L shows the control value of 50% or less) | L (L shows the control value of 50% or less) | L (L shows the control value of 50% or less)
